# Out of some 360,000 compounds screened, about 6,000 (1.7%) were called active. Inconclusive results, whose numbers are uncertain, are shown with a selection of clear calls. The call rests on the fitted dose curve; in most records, active means well fitted cell-killing curve with a large enough effect; inconclusive means small, poorly fitted or top-dose-only effect, or effect the other way; inactive means flat fitted curve, though single readings scatter. Potencies of inconclusive entries are left out as doubtful fits.
# Assay: qHTS for induction of synthetic lethality in tumor cells producing 2HG: qHTS for the HT-1080-NT fibrosarcoma cell line;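 further: NT is the 2HG producing partner of a matched IDH1 knockdown line; nearly all actives have a fitted effect of over 55% in size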;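 on activity, negative = less viability: 0% = DMSO-treated cells and -100% = media-only wells without cells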
# Settings: HT-1080-NT fibrosarcoma viability, CellTiter-Glo ATP luminescence, 48 h; activity, negative = less viability: at 46.1 µM (top of the series) unless noted
# Procedure, shortened: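 A 48-hour cytotoxicity screen used HT-1080-NT cells plated 2 hours before compound delivery. ATP-based CellTiter-Glo luminescence measured viability, normalized to DMSO and no-cell controls.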
# Potency means the concentration at half of the fitted maximal effect; tags describe the fitted curve by direction and shape.
SMILES,Potency,"activity, negative = less viability"
C=CCN1N=C(/C=C/c2ccc(OC)cc2)CCC1=O,inactive,–
CC(=O)Nc1cccc(Nc2nc(-c3ccccc3F)nc3ccccc23)c1,inactive,–
CCn1c(CNC(=O)COc2ccc(C(C)C)cc2)nnc1SCC(=O)Nc1ccccc1F,"inconclusive [cytotoxic, single point]",–
COc1cccc(CN2CCC2(C)C(=O)Nc2cccc3cccnc23)c1F (configuration not stated),active: 23.1 µM,–
CN(c1ccccc1)S(=O)(=O)c1ccc(NC(=O)c2ccc(-c3ccccc3)cc2)cc1,"inconclusive [cytotoxic, single point]",–
Nc1cc(=O)[nH]c(SCC(=O)Nc2ccc(Cl)c(Cl)c2)n1,"inconclusive [cytotoxic, single point]",–
COc1ccc(-c2nc3c4c(ncn3n2)-c2ccccc2CC42CCCC2)cc1,"inconclusive [rising, single point]",–
CCOCCCNC(=O)c1cc2c(=O)n(CC)c3ccccc3c2s1,"inconclusive [cytotoxic, single point]",–
COc1ccc(NC(=O)N(C)[C@H]2C[C@H]3c4[nH]c5ccccc5c4CCN3C[C@H]2[C@H](C)O)cc1,"inconclusive [cytotoxic, single point]",–
Cc1ccc(NC(=O)/C=C/c2ccc([N+](=O)[O-])s2)cc1,–,inconclusive: -30% [cytotoxic]
Cc1ccc(S(=O)(=O)CNC(=S)c2cccc(C)c2)cc1,"inconclusive [cytotoxic, single point]",–
CCc1nnc2n1N=C(c1ccc(-c3cc(Cl)ccc3Cl)o1)CS2,inactive,–
O=C(O)C1CCCCC1C(=O)NCCc1ccc(F)cc1 (configuration not stated),"inconclusive [rising, partial curve]",–
Cc1ccc(C)c(OCCCCCn2ccnc2)c1,"inconclusive [cytotoxic, single point]",–
O=C(Nc1ccccc1)Nc1ncc([N+](=O)[O-])s1,active: 9.2 µM,–
Cc1cccc(-c2ccc3c(c2)C2CC3CCN2Cc2ccc3c(c2)OCO3)c1 (configuration not stated),inactive,–
CN1c2ccccc2C(O)=C(C(=S)Nc2ccc(F)c(Cl)c2)S1(=O)=O,"inconclusive [cytotoxic, single point]",–
Cc1[nH]c(-c2ccc(F)cc2)cc1C(=O)N1CCN(c2ccc(Cl)cc2)CC1,inactive,–
COCCNC(=O)c1ccc(C)c(NC(=O)C2=C(C)OCCS2)c1,"inconclusive [rising, single point]",–
NC(=S)NN=Cc1c[nH]c2nccnc12,inactive,–
CCOc1ccc2c(c1)ncn2Cc1ccccc1,inactive,–
O=C(Nc1ccc2c(c1)OCO2)c1ccc2sc([C@@H]3O[C@H](CO)[C@H](O)[C@H](O)[C@H]3O)nc2c1,inactive,–
CC(C)(C)OC(=O)NCCCC[C@H](NC(=O)c1[nH]cnc1C(=O)N[C@@H](Cc1ccccc1)C(=O)OCc1ccccc1)C(=O)OC(C)(C)C,"inconclusive [cytotoxic, single point]",–
Cc1ccc(OCCCN2CCC(C(O)(c3ccccc3)c3ccccc3)CC2)cc1,"inconclusive [cytotoxic, single point]",–

SMILES,Potency,"activity, negative = less viability"
CCCCCCCCNS(=O)(=O)CCNCCCC,inactive,–
Cc1ccc(S(=O)(=O)N2CCOCC2)cc1NC(=O)COC(=O)Cn1c(C)csc1=O,inactive,–
C=CCNC(=O)c1ccc(-c2cccc([N+](=O)[O-])c2)o1,"inconclusive [rising, single point]",–
COC(=O)c1ccccc1Sc1ncnc2onc(C)c12,"inconclusive [cytotoxic, partial curve]",–
CCN1CCN(c2ccc(Cl)cc2NC(=O)c2ccco2)CC1,inactive,–
COCc1cc(CN2CCCC2)c(O)c2ncccc12,active: 1.12 µM,–
O=[N+]([O-])c1ccc(S(=O)(=O)NCC(c2cccnc2)N2CCc3ccccc3C2)cc1 (configuration not stated),inactive,–
COC(=O)c1ccc(COc2ccccc2/C=C/C(=O)c2ccc(OCC(=O)O)cc2)cc1,"inconclusive [cytotoxic, partial curve]",–
O=C(Nc1cc(S(=O)(=O)N2CCCCC2)ccc1O)c1ccccc1NS(=O)(=O)c1ccc(F)cc1,"inconclusive [cytotoxic, single point]",–
O=C(NC1CCCC1)C1CCN(C(=O)c2cc(Cl)ccc2Cl)CC1,inactive,–
OCCC1CN(Cc2cccn2-c2nccs2)CCN1Cc1ccccc1 (configuration not stated),inactive,–
N#CC/C(N)=N/Nc1nc2ccccc2nc1Cc1ccccc1,–,inconclusive: -34.7% [cytotoxic]
O=C(CN1CCCCC1)Nc1c2c(nc3ccccc13)N(c1ccccc1)CC2,active: 11.6 µM,–
CCOC(=O)N1CCN(S(=O)(=O)c2ccc(C(=O)Nc3sc4c(c3C(N)=O)CCN(CC)C4)cc2)CC1,"inconclusive [cytotoxic, single point]",–
C=CCn1c(=NC(=O)c2ccc(S(=O)(=O)N3CCc4ccccc4C3)cc2)sc2cc(S(N)(=O)=O)ccc21,active: 13 µM,–
Cc1ccc(S(=O)(=O)N2C3CCCCC3O[C@H]2CC(=O)c2cccs2)cc1 (some centres not stated),inactive,–
COc1cc(/C=N/NC(=O)c2cccnc2)ccc1OS(=O)(=O)c1ccc(F)cc1,inactive,–
c1ccc(-c2c[n+]3c(n2-c2ccccc2)SCC3)cc1,inactive,–
COc1c(OC(C)=O)ccc(/C=C/c2ccc3ccccc3n2)c1[N+](=O)[O-],"inconclusive [cytotoxic, single point]",–
CCOCCn1ccc2c(OCC(=O)Nc3ccccc3OC)cccc2c1=O,"inconclusive [cytotoxic, single point]",–
Cn1c(N)c(C(C[N+](=O)[O-])c2c(F)cccc2Cl)c(=O)n(C)c1=O (configuration not stated),"inconclusive [cytotoxic, single point]",–
Cc1cc(Cl)cc(C)c1OCCNCc1ccccc1,active: 18.4 µM,–
Cc1ccc(/C=N/N2CCN(Cc3cccc4ccccc34)CC2)s1,"inconclusive [rising, partial curve, poor fit]",–

# Reference: PubChem BioAssay AID686970 (National Center for Advancing Translational Sciences (NCATS), 2013)
